From the supplement of paper PMC3334620
Whole data set: some 33,000 sequences, median “E-score (-0.5 to 0.5)” near -0.01, cut for the highest 2% near 0.26. Some of the results follow.

Biological target: Ste12 (UniProt P13574)
Test: PBM E-score (8-mer binding enrichment) (E-score (-0.5 to 0.5)); higher = stronger / more preferred TF binding; most listed sequences are background and not binding sites
Details: protein concentration: 200 nM; construct: GST-DNA-binding domain
Outline: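 E-scores (a modified Wilcoxon-Mann-Whitney statistic) were assigned by the Universal PBM Analysis Suite to every ungapped eight-base word pooled with its reverse complement. The input came from universal all-10-mer Agilent arrays made double-stranded by primer extension and probed with GST-tagged yeast transcription factors at about 100-200 nM. Fluorescent anti-GST detected bound protein, and masliner normalised the scans.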

Compared with AATCCTCG, AGTGTCTC is higher in “PBM E-score” value: -0.062 for the first, -0.0319 for the second.

First: CCGTTTAA
Second: ACCAGTTA
The “PBM E-score” value of the first is higher: 0.135 for the first, 0.0659 for the second.

First: CGCTGTCA
Second: CCCGGATC
The “PBM E-score” value of the first is higher: -0.0431 for the first, -0.0487 for the second.

First: TGCACAAA
Second: AGCCATAC
The “PBM E-score” value of the first is higher: 0.115 for the first, -0.0754 for the second.

Going from CTCTTTTA to AAAGATCC, the “PBM E-score” value falls from 0.0019 to -0.0171.

First: AGGTTCCG
Second: CAGGGTCG
The “PBM E-score” value of the first is higher: 0.0466 for the first, -0.0799 for the second.

First: ATGGTAAA
Second: CGGAATAA
The “PBM E-score” value of the first is higher: 0.139 for the first, 0.0438 for the second.

Going from AAGATCGT to CTTTTTAC, the “PBM E-score” value rises from -0.0522 to 0.25.

First: AGTTCTTG
Second: CACTGCAC
The “PBM E-score” value of the first is higher: -0.0124 for the first, -0.14 for the second.

Compared with TACTGGAA, ATGGATGC is lower in “PBM E-score” value: 0.182 for the first, -0.0947 for the second.

First: CAGTACTG
Second: ATTAACCG
The “PBM E-score” value of the first is lower: -0.0408 for the first, 0.111 for the second.

Compared with GACTCTAC, AAAATACG is higher in “PBM E-score” value: -0.174 for the first, 0.154 for the second.

First: CAATTTCA
Second: CGGTCTAG
The “PBM E-score” value of the first is lower: -0.0398 for the first, 0.0867 for the second.

Compared with GGAGGGCA, CAATCGTA is higher in “PBM E-score” value: 0.0377 for the first, 0.039 for the second.

Going from CACAGCGC to GTCCTAAC, the “PBM E-score” value falls from 0.0031 to -0.0583.

First: CGCCGCCG
Second: ATCCAAAG
The “PBM E-score” value of the first is lower: -0.0563 for the first, 0.14 for the second.

Compared with AAGGGGGG, ACTAGGGC is higher in “PBM E-score” value: -0.261 for the first, -0.163 for the second.

First: CAGCACAC
Second: ACAACAAG
The “PBM E-score” value of the first is lower: -0.16 for the first, 0.0013 for the second.

Going from GGACCCTA to GCTGCGGA, the “PBM E-score” value rises from -0.301 to 0.0307.

First: GTGTATCA
Second: CCCCAACG
The “PBM E-score” value of the first is higher: 0.301 for the first, -0.0961 for the second.

Compared with CGAGTAAC, ACGTGCAT is lower in “PBM E-score” value: 0.0756 for the first, -0.203 for the second.

Going from CTAGCACA to TTCGACAA, the “PBM E-score” value rises from -0.22 to -0.0424.

Compared with ACTTCCCC, ACTCGTCA is higher in “PBM E-score” value: -0.117 for the first, 0.0406 for the second.

Going from CTTAGGGA to AGTGTCAG, the “PBM E-score” value rises from -0.316 to 0.0128.

Going from ACTCCATC to AAGTTAGG, the “PBM E-score” value rises from -0.107 to -0.0455.

First: CACGGGCA
Second: GGTTATCA
The “PBM E-score” value of the first is lower: -0.157 for the first, 0.00703 for the second.

Compared with CTTCTGGC, AACTTTGT is lower in “PBM E-score” value: 0.0295 for the first, 0.0244 for the second.

Going from ATTCCCCA to CAGTAACC, the “PBM E-score” value rises from -0.0812 to 0.0714.

First: CTCATGCC
Second: ACGACGGG
The “PBM E-score” value of the first is lower: -0.209 for the first, -0.095 for the second.

First: CTTTTGTA
Second: AGCGAGAC
The “PBM E-score” value of the first is higher: 0.149 for the first, -0.0839 for the second.

Compared with CCTAGTAC, CTGCACCA is higher in “PBM E-score” value: -0.25 for the first, -0.0106 for the second.

Going from CCAGGCAA to GTGGTGAA, the “PBM E-score” value falls from 0.0679 to 0.0592.

Compared with TGCAACCA, CCTGGACA is lower in “PBM E-score” value: 0.193 for the first, -0.177 for the second.

First: CGCCATGC
Second: ATATAATA
The “PBM E-score” value of the first is lower: -0.132 for the first, 0.201 for the second.

Compared with GGGTAACA, CACGCGTC is higher in “PBM E-score” value: -0.0668 for the first, 0.174 for the second.

First: CGCCGTGA
Second: CACGGGGC
The “PBM E-score” value of the first is higher: 0.0593 for the first, -0.0164 for the second.

Going from AGAGGTCA to CATTCACG, the “PBM E-score” value rises from -0.0617 to -0.0119.

First: GGTGTGGA
Second: GGACCTAA
The “PBM E-score” value of the first is lower: 0.114 for the first, 0.145 for the second.

Compared with CGTGGAAG, CGCCTTAA is higher in “PBM E-score” value: 0.0472 for the first, 0.153 for the second.

Going from GGGGGACA to AGACCCTC, the “PBM E-score” value falls from 0.0383 to -0.232.

First: CCCTTAAC
Second: ATCACTTC
The “PBM E-score” value of the first is lower: -0.0198 for the first, 0.0214 for the second.

First: ACTACCTA
Second: CGACGAAG
The “PBM E-score” value of the first is lower: -0.242 for the first, -0.03 for the second.

First: CTATAGAC
Second: GTGTAGAA
The “PBM E-score” value of the first is lower: -0.217 for the first, -0.0218 for the second.

Compared with AGCTTGGG, GGTTTGCA is higher in “PBM E-score” value: -0.0284 for the first, 0.093 for the second.

Compared with CCCTAGCA, GCTCTGCC is lower in “PBM E-score” value: -0.0486 for the first, -0.208 for the second.

First: CCAGAACC
Second: CCAAAGCA
The “PBM E-score” value of the first is lower: 0.00617 for the first, 0.0448 for the second.

Compared with AATTACCC, AACCATTG is lower in “PBM E-score” value: 0.0106 for the first, -0.131 for the second.

Compared with ATCCTTGC, CAGAATGA is higher in “PBM E-score” value: -0.238 for the first, 0.0622 for the second.

Compared with GAAATGAA, CATTGCGA is lower in “PBM E-score” value: 0.331 for the first, 0.169 for the second.

Going from AGTTCCTG to CGTTCAAA, the “PBM E-score” value rises from -0.263 to 0.0556.

Going from CCTCTTAC to TGGCTCAA, the “PBM E-score” value rises from -0.166 to 0.00506.

First: AATCTGAT
Second: AGCAAACA
The “PBM E-score” value of the first is lower: -0.0901 for the first, 0.0976 for the second.

First: CAGCGTCA
Second: CCAGGTCA
The “PBM E-score” value of the first is lower: -0.184 for the first, -0.127 for the second.

First: GGGTTAAC
Second: CATTGAGA
The “PBM E-score” value of the first is lower: -0.0583 for the first, 0.0251 for the second.

First: GGATTCCC
Second: CGACTCGA
The “PBM E-score” value of the first is lower: -0.294 for the first, -0.0782 for the second.

Compared with AAATGAAA, AGGCTTAA is lower in “PBM E-score” value: 0.426 for the first, -0.171 for the second.

Going from CGTCGGAA to GAGATGGA, the “PBM E-score” value falls from 0.072 to -0.167.

First: ACGAGGGA
Second: CGCAAAGC
The “PBM E-score” value of the first is higher: 0.0634 for the first, -0.0999 for the second.

Compared with CTCCGAAA, CCACTTGC is lower in “PBM E-score” value: 0.00449 for the first, -0.164 for the second.

First: ACCCATCT
Second: CAAGAACA
The “PBM E-score” value of the first is lower: -0.019 for the first, -0.0156 for the second.

Compared with ATCTCCGC, GGTATGTA is higher in “PBM E-score” value: 0.0598 for the first, 0.0738 for the second.

Compared with GCGCTCGA, TAATTCTA is higher in “PBM E-score” value: -0.00155 for the first, 0.267 for the second.

Compared with CTCCTGGA, GCCGGACA is higher in “PBM E-score” value: -0.166 for the first, 0.109 for the second.

Going from ACGTCGGG to CCGCGTTA, the “PBM E-score” value rises from -0.221 to 0.0312.

First: ATCCAGTG
Second: AGTTTAAG
The “PBM E-score” value of the first is lower: -0.0497 for the first, -0.0301 for the second.

First: CTGAGACA
Second: TTAAGCAA
The “PBM E-score” value of the first is higher: 0.224 for the first, 0.171 for the second.

Going from GATTAGGA to CTCAGGAA, the “PBM E-score” value falls from -0.0025 to -0.141.

Going from ATGTTATA to ATAGGCAA, the “PBM E-score” value falls from 0.0142 to -0.16.

Going from ACTCGCTC to AGGAACCT, the “PBM E-score” value falls from 0.0471 to -0.00887.

Going from CTAGATGC to AGGATTCC, the “PBM E-score” value falls from -0.135 to -0.256.

Compared with GGCCGCCA, CCATCTCC is higher in “PBM E-score” value: -0.14 for the first, -0.0357 for the second.

Compared with AGCTCTTA, GACTGTGA is higher in “PBM E-score” value: -0.142 for the first, 0.0814 for the second.

Compared with AGCCCATA, CCCATCGC is lower in “PBM E-score” value: -0.121 for the first, -0.126 for the second.

Going from GTTTCTTA to CGTGACCC, the “PBM E-score” value falls from 0.255 to -0.0971.

Going from AGTGGCCG to GGCTGAAA, the “PBM E-score” value rises from -0.22 to 0.27.

Going from CTCTCGCC to AGATCGAA, the “PBM E-score” value rises from -0.096 to 0.108.

Going from GAATTACA to GCGGGAAA, the “PBM E-score” value falls from 0.14 to 0.121.

First: ATGTCGGA
Second: CGTATTAG
The “PBM E-score” value of the first is lower: 0.0594 for the first, 0.193 for the second.

Compared with TCTAGAGA, CCATAATA is higher in “PBM E-score” value: -0.212 for the first, 0.121 for the second.

First: CCCTGAGG
Second: CAGTGATC
The “PBM E-score” value of the first is lower: -0.213 for the first, 0.0344 for the second.

Compared with AAAAGGTT, ATTCATCC is higher in “PBM E-score” value: -0.0206 for the first, 0.00901 for the second.

Going from AGATAGTC to CCGTTGCG, the “PBM E-score” value rises from -0.253 to -0.0934.

Compared with CACACGTA, GAGTGTGA is higher in “PBM E-score” value: -0.192 for the first, 0.0238 for the second.

Compared with CGGCCAAC, ATCCCTAA is lower in “PBM E-score” value: -0.01 for the first, -0.282 for the second.

Going from GCAGCGGC to AAAGCCGC, the “PBM E-score” value rises from -0.114 to 0.00426.

Going from CGGAGGGA to GAGAAACA, the “PBM E-score” value rises from -0.214 to 0.179.
